According to EPA's CvTdb concentration-time database:
This continues a long series; more values of the same kind are listed elsewhere.

What was measured:
[1] = system: Rat; experiment: concentration in brain after dosing; settings: 20 min; dosed: 2-Methyltetrahydrofuran; 100 mg/kg; oral; Female; Harlan Sprague Dawley
[2] = system: Rat; experiment: concentration in plasma after dosing; settings: 20 min; dosed: 2-Methyltetrahydrofuran; 30 mg/kg; oral; Male; F344
[3] = system: Rat; experiment: concentration in brain after dosing; settings: 0.75 h; dosed: 2-Methyltetrahydrofuran; 400 mg/kg; oral; Male; F344
[4] = system: Rat; experiment: concentration in plasma after dosing; settings: 1 h; dosed: 2-Methyltetrahydrofuran; 10 mg/kg; oral; Male; F344
[5] = system: Rat; experiment: concentration in plasma after dosing; settings: 3 h; dosed: 2-Methyltetrahydrofuran; 30 mg/kg; oral; Female; F344
[6] = system: Rat; experiment: concentration in brain after dosing; settings: 2 min; dosed: 2-Methyltetrahydrofuran; 10 mg/kg; oral; Male; F344
[7] = system: Rat; experiment: concentration in plasma after dosing; settings: 6 h; dosed: 2-Methyltetrahydrofuran; 100 mg/kg; oral; Female; Harlan Sprague Dawley
[8] = system: Rat; experiment: concentration in plasma after dosing; settings: 3 h; dosed: 2-Methyltetrahydrofuran; 30 mg/kg; oral; Male; F344
[9] = system: Rat; experiment: concentration in plasma after dosing; settings: 0.75 h; dosed: 2-Methyltetrahydrofuran; 400 mg/kg; oral; Male; F344
[10] = system: Rat; experiment: concentration in brain after dosing; settings: 3 h; dosed: 2-Methyltetrahydrofuran; 10 mg/kg; iv; Female; F344
[11] = system: Rat; experiment: concentration in plasma after dosing; settings: 20 min; dosed: 2-Methyltetrahydrofuran; 400 mg/kg; oral; Female; F344
[12] = system: Rat; experiment: concentration in plasma after dosing; settings: 2 h; dosed: 2-Methyltetrahydrofuran; 10 mg/kg; iv; Female; F344
[13] = system: Rat; experiment: concentration in brain after dosing; settings: 1.5 h; dosed: 2-Methyltetrahydrofuran; 10 mg/kg; oral; Female; F344
[14] = system: Rat; experiment: concentration in brain after dosing; settings: 10 min; dosed: 2-Methyltetrahydrofuran; 10 mg/kg; iv; Female; F344
[15] = system: Rat; experiment: concentration in plasma after dosing; settings: 1.5 h; dosed: 2-Methyltetrahydrofuran; 100 mg/kg; oral; Female; Harlan Sprague Dawley
[16] = system: Rat; experiment: concentration in brain after dosing; settings: 20 min; dosed: 2-Methyltetrahydrofuran; 10 mg/kg; iv; Male; F344
[17] = system: Rat; experiment: concentration in plasma after dosing; settings: 0.75 h; dosed: 2-Methyltetrahydrofuran; 400 mg/kg; oral; Male; F344; remark: listed apart in the source
[18] = system: Rat; experiment: concentration in plasma after dosing; settings: 4 min; dosed: 2-Methyltetrahydrofuran; 10 mg/kg; oral; Male; F344
[19] = system: Rat; experiment: concentration in brain after dosing; settings: 4 min; dosed: 2-Methyltetrahydrofuran; 30 mg/kg; oral; Male; F344
[20] = system: Rat; experiment: concentration in brain after dosing; settings: 0.5 h; dosed: 2-Methyltetrahydrofuran; 10 mg/kg; iv; Female; F344
[21] = system: Rat; experiment: concentration in brain after dosing; settings: 8 h; dosed: 2-Methyltetrahydrofuran; 400 mg/kg; oral; Male; F344
[22] = system: Rat; experiment: concentration in plasma after dosing; settings: dosed: Bromochloroacetic acid, 80 mg/kg, iv, Female, Harlan Sprague-Dawley
[23] = system: Rat; experiment: concentration in plasma after dosing; settings: dosed: Bromochloroacetic acid, 100 mg/kg, oral, Female, F344
[24] = system: Rat; experiment: concentration in plasma after dosing; settings: 20 min; dosed: Bromochloroacetic acid; 10 mg/kg; iv; Male; F344
[25] = system: Rat; experiment: concentration in plasma after dosing; settings: 10 min; dosed: Bromochloroacetic acid; 10 mg/kg; iv; Male; F344
[26] = system: Rat; experiment: concentration in plasma after dosing; settings: 12 h; dosed: Fluorotelomer alcohol 8+2; 24 mg/kg; oral; Male; Harlan Sprague Dawley
[27] = system: Rat; experiment: concentration in plasma after dosing; settings: dosed: Formamide, 30 mg/kg, iv, Female, F344
[28] = system: Rat; experiment: concentration in plasma after dosing; settings: dosed: Formamide, 90 mg/kg, iv, Male, Harlan Sprague Dawley
[29] = system: Rat; experiment: concentration in plasma after dosing; settings: dosed: Formamide, 30 mg/kg, iv, Female, F344; remark: listed apart in the source
[30] = system: Rat; experiment: concentration in plasma after dosing; settings: dosed: Formamide, 36 mg/kg, oral, Female, Harlan Sprague Dawley
[31] = system: Rat; experiment: concentration in plasma after dosing; settings: dosed: Formamide, 600 mg/kg, oral, Male, F344
[32] = system: Rat; experiment: concentration in plasma after dosing; settings: 2 min; dosed: Pyridine; 50 mg/kg; oral; Female; F344
[33] = system: Rat; experiment: concentration in plasma after dosing; settings: 10 min; dosed: Pyridine; 50 mg/kg; oral; Male; Harlan Sprague Dawley
[34] = system: Rat; experiment: concentration in plasma after dosing; settings: 9 h; dosed: Pyridine; 200 mg/kg; oral; Female; Harlan Sprague Dawley
[35] = system: Rat; experiment: concentration in plasma after dosing; settings: 10 min; dosed: Pyridine; 10 mg/kg; oral; Male; Harlan Sprague Dawley
[36] = system: Rat; experiment: concentration in plasma after dosing; settings: dosed: Pyridine, 5 mg/kg, oral, Female, F344
[37] = system: Rat; experiment: concentration in plasma after dosing; settings: 0.25 h; dosed: Pyridine; 0.5 mg/kg; iv; Male; F344
[38] = system: Rat; experiment: concentration in plasma after dosing; settings: 40 min; dosed: Pyridine; 200 mg/kg; oral; Female; Harlan Sprague Dawley

CC1CCCO1 (stereo unspecified) [2-Methyltetrahydrofuran]
Settings | concentration in brain [µg/g] | concentration in plasma [µg/mL]
[1] | 39.1 | –
[2] | – | 16.7
[3] | 153 | –
[4] | – | 1.39
[5] | – | 0.569
[6] | 0.529 | –
[7] | – | 0.783
[8] | – | 4.33
[9] | – | 187
[10] | 0.0207 | –
[11] | – | 184
[12] | – | 0.13
[13] | 0.156 | –
[14] | 6.07 | –
[15] | – | 39.8
[16] | 6.12 | –
[17] | – | 214
[18] | – | 2.57
[19] | 9.6 | –
[20] | 2.7 | –
[21] | 49.9 | –

O=C(O)C(Cl)Br (stereo unspecified) [Bromochloroacetic acid]
concentration in plasma [µg/mL]
Settings | 1 h | 3 h | 7 h | 20 min
[22] | 15.1 | 1.06 | – | –
[23] | – | – | 4.23 | 25.4

Settings | concentration in plasma [µg/mL]
[24] | 1.62
[25] | 5.44

OCCC(F)(F)C(F)(F)C(F)(F)C(F)(F)C(F)(F)C(F)(F)C(F)(F)C(F)(F)F [Fluorotelomer alcohol 8+2]
Settings | concentration in plasma [ng/mL]
[26] | 11.8

NC=O [Formamide]
Settings | concentration in plasma [µg/mL]
[27], 5 min | 45.1
[27], 36 h | 3.3
[28], 5 h | 108
[28], 72 h | 3.3
[29], 10 min | 51.7
[29], 18 h | 10.4
[30], 10 min | 11.7
[30], 20 h | 16.4
[31], 8 h | 683
[31], 12 h | 654

c1ccncc1 [Pyridine]
Settings | concentration in plasma
[32] | 20.2 µg/mL
[33] | 44.5 µg/mL
[34] | 73.2 µg/mL
[35] | 8.1 µg/mL
[37] | 263 ng/mL
[38] | 104 µg/mL

[36]
Settings | concentration in plasma [µg/mL]
2 h | 3.39
14 h | 0.111
